Source: PubChem BioAssay (NCATS)
The shares of active, inactive and inconclusive entries below differ from those in the screen. Where the call is inconclusive, the potency comes from a doubtful curve fit. Activity calls are given as the source filed them. The call rests on the fitted dose curve; in most records, active means well fitted curve in the direction sought with a large enough effect; inconclusive means small, poorly fitted or top-dose-only effect, or another doubt; inactive means no such curve, though single readings can be large; an effect the other way counts as inactive or inconclusive.

Legend:
[1] = qHTS of pediatric cancer cell lines to identify multiple opportunities for drug repurposing: Primary screen for DAOY cells (AID 1347090); further: nearly all actives have a fitted effect of over 55% in size
Method in brief: (§1)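 Eight- or eleven-point concentration series, 48 h treatment at 37 degrees C in growth media; readout CellTiter-Glo luminescence. Potency and efficacy were taken from the concentration-response curves.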

[2] = qHTS of pediatric cancer cell lines to identify multiple opportunities for drug repurposing: Primary screen for SJ-GBM2 cells (AID 1347091)
Method in brief: as §1

[3] = qHTS of pediatric cancer cell lines to identify multiple opportunities for drug repurposing: Primary screen for BT-37 cells (AID 1347094)
Method in brief: (§2)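 Following a 5-hour attachment period, cells at 500-1,000/well received compounds and were cultured for 48 hours. CellTiter-Glo was added and luminescence read to estimate viable, metabolically active cells.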

[4] = qHTS of pediatric cancer cell lines to identify multiple opportunities for drug repurposing: Primary screen for U-2 OS cells (AID 1347096); further: nearly all actives have a fitted effect of over 50% in size
Method in brief: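 Cells (500-1,000/well) in growth media were settled 5 h at 37 degrees C, then given compounds for 48 h. Viability was read as CellTiter-Glo luminescence. Primary runs used MIPE at 11 points (0.78 nM-46 µM) and NPC at 8 points (0.59 nM-46 µM); follow-ups used 11 points.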

[5] = qHTS of pediatric cancer cell lines to identify multiple opportunities for drug repurposing: Primary screen for NB-EBc1 cells (AID 1347095)
Method in brief: as §2

[6] = qHTS of pediatric cancer cell lines to identify multiple opportunities for drug repurposing: Primary screen for A673 cells (AID 1347092); conditions: A673 Ewing sarcoma viability, CellTiter-Glo ATP luminescence, 48 h; activity change, negative = cytotoxic: at 46 µM (top of the series); further: nearly all actives have a fitted effect of over 45% in size
Method in brief: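 Cell viability of A673 measured by CellTiter-Glo ATP luminescence after 48 hours compound exposure. Dilution series spanned 0.78 nM to 46 µM (MIPE, 11-point) or 0.59 nM to 46 µM (NPC, 8-point); bortezomib 2.3 uM positive control.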

[7] = qHTS of pediatric cancer cell lines to identify multiple opportunities for drug repurposing: Primary screen for SK-N-MC cells (AID 1347093); conditions: SK-N-MC viability, CellTiter-Glo luminescence, 48 h; activity change, negative = cytotoxic: at 46 µM (top of the series)
Method in brief: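 Metabolically active cells were quantified by ATP-dependent luminescence (CellTiter-Glo, 15 min at room temperature) following 48 h treatment. Cells had been plated at 500-1,000 per well and settled for 5 h beforehand.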
Potency means the concentration at half of the fitted maximal effect; tags describe the fitted curve by direction and shape.

Compound	Potency [1]	Potency [2]	Potency [3]	Potency [4]	Potency [5]	Potency [6]	Potency [7]
C[n+]1c2cc(N)ccc2cc2ccc(N)cc21 (tested in a mixture with another compound)	active: 21.1 µM	inconclusive: 33.5 µM [cytotoxic, single point]	active: 3.47 µM	active: 13.3 µM	–	–	–
O=C1Nc2ccc(I)cc2C1=Cc1cc(Br)c(O)c(Br)c1	inconclusive: 18.7 µM [cytotoxic, partial curve, poor fit]	inconclusive: 11.8 µM [cytotoxic, partial curve]	–	–	inconclusive: 33.2 µM [cytotoxic, single point]	–	–
O=C(O)CCC=CCC[C@@H]1[C@H](N2CCCCC2)[C@@H](O)C[C@@H]1OCc1ccc(-c2ccccc2)cc1	inconclusive: 18.7 µM [cytotoxic, partial curve, poor fit]	–	–	–	–	inconclusive: 14.8 µM [cytotoxic, partial curve]	–
COc1cc2ncnc(Nc3cccc(Br)c3)c2cc1OC	inconclusive: 0.0093 µM [cytotoxic, full curve, poor fit]	active: 20.9 µM	–	inconclusive: 29.6 µM [cytotoxic, single point]	inconclusive: 33.2 µM [cytotoxic, single point]	–	–
CN(C)c1ccc(-c2nc3ncc(Cl)c(N4CCN(CC(=O)Nc5nccs5)CC4)c3[nH]2)cc1	inactive	active: 14.8 µM	inconclusive: 3.06 µM [cytotoxic, full curve]	–	active: 2.35 µM	–	inconclusive: 4.18 µM [cytotoxic, full curve, poor fit]
OC1CCC(Nc2ncc3nc(Nc4c(F)cc(F)cc4F)n([C@@H]4CCOC4)c3n2)CC1 (stereo partly drawn)	inconclusive: 23.5 µM [cytotoxic, single point]	active: 9.35 µM	inconclusive: 21.7 µM [cytotoxic, partial curve]	inconclusive: 23.5 µM [cytotoxic, partial curve, poor fit]	active: 5.26 µM	–	–
CC(N[C@H]1CCCC[C@H]1NC(=O)c1ccc(Cl)cc1)c1cccc2ccccc12 (stereo partly drawn)	active: 0.0296 µM	inconclusive: 23.5 µM [cytotoxic, partial curve, poor fit]	–	–	inconclusive: 0.526 µM [cytotoxic, full curve]	–	–
Cc1cc(CS(=O)(=O)c2ccccc2)cc(OCc2ccc(CN3CCC[C@H]3CO)cc2)c1	inconclusive: 14.8 µM [cytotoxic, partial curve]	inconclusive: 16.6 µM [cytotoxic, partial curve]	inconclusive: 21.7 µM [cytotoxic, partial curve]	–	–	–	–
C/C=C(/C(=C/C)c1ccc(O)cc1)c1ccc(O)cc1	inconclusive: 21.1 µM [cytotoxic, single point]	inconclusive: 21.1 µM [cytotoxic, single point]	–	inactive	–	inconclusive: 26.6 µM [cytotoxic, single point]	–
CCn1c(-c2nonc2N)nc2cncc(CNC3CCNCC3)c21	inconclusive: 18.7 µM [cytotoxic, partial curve, poor fit]	inconclusive: 11.8 µM [cytotoxic, partial curve]	–	–	inconclusive: 11.8 µM [cytotoxic, partial curve]	–	inactive
Nc1ccc(C(=O)Nc2cccc(-c3nc(N4CCOCC4)c4oc5ncccc5c4n3)c2)cn1	inconclusive: 9.35 µM [cytotoxic, partial curve]	active: 3.72 µM	–	active: 18.7 µM	–	–	active: 1.18 µM
CCc1cc(Nc2nccc(-c3c(-c4ccc(OC)c(C(=O)Nc5c(F)cccc5F)c4)nc4ccccn34)n2)c(OC)cc1N1CCC(N2CCN(S(C)(=O)=O)CC2)CC1	inconclusive: 23.5 µM [cytotoxic, single point]	–	inconclusive: 19.3 µM [cytotoxic, partial curve]	–	inconclusive: 20.9 µM [cytotoxic, partial curve]	inconclusive: 14.8 µM [cytotoxic, partial curve]	inconclusive: 23.5 µM [cytotoxic, single point]
Cc1cc(SCc2sc(-c3ccc(C(F)(F)F)cc3)nc2C)ccc1OCC(=O)O	inactive	inconclusive: 0.332 µM [cytotoxic, partial curve]	–	–	inactive	–	–
CNCCCC1c2ccccc2C=Cc2ccccc21	inconclusive: 16.8 µM [cytotoxic, partial curve, poor fit]	inconclusive: 26.6 µM [cytotoxic, single point]	inconclusive: 27.6 µM [cytotoxic, single point]	inconclusive: 13.3 µM [cytotoxic, partial curve, poor fit]	–	inconclusive: 26.6 µM [cytotoxic, single point]	–
CCCCCCCCNC(C)C(O)c1ccc(SC(C)C)cc1 (stereo not drawn)	inconclusive: 26.6 µM [cytotoxic, single point]	inconclusive: 29.9 µM [cytotoxic, single point]	–	inconclusive: 21.1 µM [cytotoxic, single point]	inconclusive: 29.9 µM [cytotoxic, single point]	–	–
O=S(=O)(O)c1ccc2nc(-c3ccccc3)[nH]c2c1	inconclusive: 26.6 µM [cytotoxic, single point]	inconclusive: 18.8 µM [cytotoxic, partial curve]	inconclusive: 21.9 µM [cytotoxic, single point]	inconclusive: 16.8 µM [cytotoxic, partial curve, poor fit]	inconclusive: 21.1 µM [cytotoxic, single point]	inconclusive: 21.1 µM [cytotoxic, single point]	–
CCC(=O)c1ccc2c(c1)N(CCCN(C)C)c1ccccc1S2	inactive	inconclusive: 15 µM [cytotoxic, partial curve]	inconclusive: 21.9 µM [cytotoxic, partial curve, poor fit]	–	–	inconclusive: 26.6 µM [cytotoxic, single point]	–
O=C(Nc1cccc(C(F)(F)F)c1)Nc1cc(S(=O)(=O)NC2CC2)ccc1-c1ccsc1	inconclusive: 29.6 µM [cytotoxic, single point]	–	inconclusive: 24.3 µM [cytotoxic, single point]	–	active: 23.5 µM	inconclusive: 29.6 µM [cytotoxic, single point]	inconclusive: 37.2 µM [cytotoxic, single point]
CO[C@@]12[C@H](COC(N)=O)C3=C(C(=O)C(C)=C(N)C3=O)N1C[C@@H]1N[C@@H]12	inconclusive: 3.35 µM [cytotoxic, partial curve]	inconclusive: 10.6 µM [cytotoxic, single point]	–	inconclusive: 33.5 µM [cytotoxic, single point]	–	–	–
O=C(c1cc(Cc2n[nH]c(=O)c3ccccc23)ccc1F)N1CCN(C(=O)C2CC2)CC1	inconclusive: 18.7 µM [cytotoxic, partial curve]	inconclusive: 11.8 µM [cytotoxic, partial curve]	inconclusive: 6.85 µM [cytotoxic, full curve]	inactive	–	–	–
CCOC(=O)[C@H](CCc1ccccc1)N[C@@H](C)C(=O)N1CCCC1C(=O)O (stereo partly drawn)	inconclusive: 18.7 µM [cytotoxic, partial curve, poor fit]	inactive	–	–	inconclusive: 1.18 µM [cytotoxic, partial curve, poor fit]	–	–
c1ccc(CNc2nc(NCc3ccccc3)c3ccccc3n2)cc1	inconclusive: 29.6 µM [cytotoxic, single point]	inconclusive: 29.6 µM [cytotoxic, single point]	inconclusive: 38.5 µM [cytotoxic, single point]	inconclusive: 29.6 µM [cytotoxic, single point]	–	–	–
NC(=O)C(=O)N/N=C/c1ccc([N+](=O)[O-])o1	inconclusive: 33.5 µM [cytotoxic, single point]	–	inconclusive: 38.9 µM [cytotoxic, partial curve, poor fit]	inconclusive: 21.1 µM [cytotoxic, single point]	inconclusive: 29.9 µM [cytotoxic, single point]	inconclusive: 33.5 µM [cytotoxic, single point]	inconclusive: 29.9 µM [cytotoxic, single point]
COc1c(C)c2c(c(O)c1CC=C(C)CCC(=O)O)C(=O)OC2	inconclusive: 1.18 µM [cytotoxic, full curve]	inconclusive: 1.48 µM [cytotoxic, full curve]	active: 1.53 µM	inconclusive: 4.69 µM [cytotoxic, full curve, poor fit]	active: 0.743 µM	inconclusive: 3.72 µM [cytotoxic, partial curve]	–
CC(C)C[C@H](NC(=O)[C@@H](O)[C@H](N)Cc1ccccc1)C(=O)O	inconclusive: 29.6 µM [cytotoxic, single point]	inconclusive: 33.2 µM [cytotoxic, single point]	–	–	inconclusive: 33.2 µM [cytotoxic, single point]	inconclusive: 29.6 µM [cytotoxic, single point]	–
